Data published in PubChem BioAssay AID624417 (National Center for Advancing Translational Sciences (NCATS), 2012).
The whole screen tested about 410,000 compounds, of which about 6,400 (1.6%) were called active. The inconclusive results got no clear call from the source; some entries with a clear call stand among them for comparison. Calls follow the shape of the dose curve; as a rule, active = well fitted inhibition curve with a large enough effect; inconclusive = small, poorly fitted or top-dose-only effect; inactive = no such curve, though single readings can be large or run the other way. Potencies of inconclusive entries are left out as doubtful fits.

What follows are compounds tested against Glucagon-like peptide 1 receptor (Homo sapiens) (UniProt P43220) (assay: qHTS of GLP-1 Receptor Inverse Agonists (Inhibition Mode)). Conditions: HEK293 GLP-1R CRE-luciferase, luminescence, 24 h, GLP-1R form is constitutively active; series mostly up to 38.3 µM.
Procedure, shortened: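 Luminescence readout: a drop in cAMP-driven luciferase signal flags inverse agonism at a constitutively active GLP-1R stably expressed in HEK293. Compound exposure lasted 24 hr at 37 deg C, 5% CO2.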
Also: nearly all actives have a fitted effect of over 55% in size.
Potency is read from the fitted curve at half-maximal effect; tags tell the direction and shape of the fitted curve.

Chain of UniProt P43220 (P43220 whole entry, looked up): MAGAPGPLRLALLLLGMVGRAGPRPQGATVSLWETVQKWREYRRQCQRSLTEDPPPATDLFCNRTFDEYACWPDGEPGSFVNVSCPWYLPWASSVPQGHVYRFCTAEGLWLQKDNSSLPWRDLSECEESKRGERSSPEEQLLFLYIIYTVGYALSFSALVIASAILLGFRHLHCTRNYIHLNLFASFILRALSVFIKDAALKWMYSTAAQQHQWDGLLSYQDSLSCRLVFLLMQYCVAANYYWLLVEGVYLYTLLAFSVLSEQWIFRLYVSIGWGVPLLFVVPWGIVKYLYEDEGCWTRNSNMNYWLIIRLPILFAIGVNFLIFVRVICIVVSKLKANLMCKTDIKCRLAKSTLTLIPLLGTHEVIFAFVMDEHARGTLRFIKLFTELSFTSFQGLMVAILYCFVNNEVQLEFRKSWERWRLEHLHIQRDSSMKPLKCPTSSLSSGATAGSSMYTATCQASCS

| Structure (SMILES) | Potency |
| --- | --- |
| CCOC(=O)[C@H]1[C@H]2COc3ccc(Cl)cc3[C@@H]2N2C(=O)c3cc(Cl)ccc3NC(=O)[C@@]12C | inconclusive [inhibitor, full curve] |
| CCOC(=O)c1sc(NC(=O)/C=C/c2ccc(OCC)cc2)c(C(=O)OCC)c1C | inactive |
| CCOc1ccccc1N(CC(=O)N1CCN(Cc2ccccc2)CC1)S(=O)(=O)c1ccccc1 | inconclusive [inhibitor, partial curve, poor fit] |
| CC(C)CC(=O)Nc1ccc(C(=O)OCc2cc(=O)n3nc(C(C)C)sc3n2)cc1 | inactive |
| CC(C)(C)CNC(=O)[C@]1(C)CCC[C@@]2(C)C3CC[C@@]4(C)C[C@]3(CCC21)CC4=O (stereo partly drawn) | inconclusive [inhibitor, single point] |
| CC(=O)c1cccc(NC(=O)NC2CCCc3ccccc32)c1 (stereo not drawn) | inconclusive [inhibitor, single point] |
| CCOC(=O)/C(=N\Nc1ccc(OC)cc1)c1csc(Nc2ccccc2)n1 | inconclusive [inhibitor, partial curve, poor fit] |
| CCCCNC(=O)CSc1nc2nc(C)c(Cc3ccccc3C)c(C)n2n1 | inactive |
| Nc1ccccc1SC(C[N+](=O)[O-])c1ccccc1 (stereo not drawn) | inconclusive [inhibitor, partial curve, poor fit] |
| Cc1ccc(C2=C(c3ccc([N+](=O)[O-])cc3)C(=O)OC2)cc1C | inconclusive [inhibitor, single point] |
| Cn1c(/C=C/c2ccccc2)nc2ccccc21 | active: 4.47 µM |
| COc1cc(OC)c(NC(=O)NC(C)c2c(-n3cccc3)sc(C)c2C)cc1Cl (stereo not drawn) | inconclusive [inhibitor, single point] |
| CCC1CCc2nc3sc(C(=O)Nc4ccc(F)cc4F)c(N)c3cc2C1 (stereo not drawn) | inactive |
| CCOC(=O)c1cc(C)n(CC2CCC(C(=O)Nc3ccc(Cl)cc3)CC2)c1C (stereo not drawn) | inconclusive [inhibitor, full curve] |
| O=C(c1ccco1)N1CCN(Cc2ccccc2Br)CC1 | inactive |
| CN(Cc1ccccc1)C(=O)c1ccc(NC(=O)C2CCCN(C(=O)OC(C)(C)C)C2)cc1 (stereo not drawn) | inconclusive [inhibitor, single point] |
| O=C(Nc1ncccc1O)c1ccc2c(c1)OCCO2 | inactive |
| O=C(/C=C/c1ccccc1)NC(NC(=S)Nc1ccc(Cl)cc1)C(Cl)(Cl)Cl (stereo not drawn) | inconclusive [inhibitor, full curve, poor fit] |
| Cc1cccc(OCCCCCn2ccnc2)c1C | inconclusive [inhibitor, single point] |
| S=C(Nc1ccccc1)N1CCN(c2ccc(N3CCOCC3)nn2)CC1 | inconclusive [inhibitor, partial curve, poor fit] |
| O=C(CSc1nnc(COc2ccccc2)o1)NCCc1ccccc1 | inconclusive [inhibitor, partial curve, poor fit] |
| COc1ccccc1N1CCN(CCC(=O)Nc2cccc(Cl)c2)CC1 | inconclusive [inhibitor, single point] |

| Structure (SMILES) | Potency |
| --- | --- |
| Cc1ccccc1-c1nc(CS(=O)(=O)CC(=O)N2CCN(c3ccccc3)CC2)c(C)o1 | inconclusive [inhibitor, single point] |
| CN(C)c1ccc(C=c2c3cc([N+](=O)[O-])ccc3n3c2cc(-c2ccccc2)[n+]3C)cc1 | inconclusive [inhibitor, partial curve, poor fit] |
| Cc1ccc(-c2noc(CNC(=O)c3ccc4c(c3)OCO4)n2)cc1 | inconclusive [inhibitor, partial curve, poor fit] |
| Nc1cc(OCC(F)(F)F)cc([N+](=O)[O-])c1 | inactive |
| Cc1c2c([n+]3n1CCC3)CC(C)(C)CC2=O | inactive |
| C=CCc1ccc(OCCCNC2CCCC2)c(OC)c1 | inconclusive [inhibitor, full curve, poor fit] |
| CCOc1ccc(NS(=O)(=O)c2cc(Br)cc3c2N(C(=O)C2CC2)CC3)cc1 | inconclusive [inhibitor, full curve, poor fit] |
| O=C(NCCc1ccccc1Cl)c1cc(COc2ccc(F)cc2F)on1 | inconclusive [inhibitor, partial curve, poor fit] |
| Cc1ccc(C)c(S(=O)(=O)C(C#N)c2nc3ccccc3nc2N2CCCC2)c1 (stereo not drawn) | inactive |
| CC1(Cc2ccccc2OC(F)(F)F)C(=O)Nc2ccc(OC(F)(F)F)cc21 (stereo not drawn) | inconclusive [inhibitor, partial curve, poor fit] |
| CNC(=O)OCc1nc(SSC(C)(C)C)n(C)c1COC(=O)NC | inconclusive [inhibitor, single point] |
| CC(=O)c1ccc(OC2(C)CCN(CCOc3ccc(C)cc3)C2)cc1 (stereo not drawn) | inactive |
| CCN(CC)C(=O)c1nc(-c2cccc3ccccc23)no1 | inconclusive [inhibitor, single point] |
| COc1ccc(-c2csc(NC(=O)CS(=O)(=O)c3ccccc3)n2)c(OC)c1 | inconclusive [inhibitor, single point] |
| CNC(=S)NCCC(c1ccccc1)c1ccccc1 | inconclusive [inhibitor, single point] |
| CC1=Nc2ccc3ccccc3c2C1(C)C | inactive |
| CCN(CC)CCNC(=O)c1ccc(NC(=O)Nc2cccc3ccccc23)cc1 | active: 10 µM |
| O=C(Cc1cccc([N+](=O)[O-])c1)NCc1nc2cccnc2n1Cc1ccc(F)cc1 | inactive |
| O=C(NCc1ccc(F)c(F)c1)C1Cc2c(-c3ccc4c(c3)OCO4)ccnc2O1 (stereo not drawn) | inconclusive [inhibitor, partial curve, poor fit] |
| CCC(=O)N1CCc2cc(Br)cc(S(=O)(=O)N3CCCC(C(=O)Nc4cccc(Cl)c4C)C3)c21 (stereo not drawn) | inactive |
| Cc1ccc(-c2c(C)cc3oc(=O)cc(-c4ccccc4)c3c2C)cc1 | inconclusive [inhibitor, single point] |
